Measurements published in PubChem BioAssay AID504339 (National Center for Advancing Translational Sciences (NCATS), 2011).
Values joined by “and” are separate entries in the source; they are usually repeats but may differ in a detail not shown here. Identical values can stand only once. Out of some 390,000 compounds screened, about 17,000 (4.4%) were called active. The inconclusive results got no clear call from the source; some entries with a clear call stand among them for comparison. The call rests on the fitted dose curve; in most records, active means well fitted inhibition curve with a large enough effect; inconclusive means small, poorly fitted or top-dose-only effect; inactive means no such curve, though single readings can be large or run the other way. A potency beside an inconclusive call is a rough fit, not a confirmed value. The source holds several records for some structures; these can differ, active in one and inactive in another.

Target: Lysine-specific demethylase 4A (Homo sapiens) (UniProt O75164)
Experiment: qHTS Assay for Inhibitors of JMJD2A-Tudor Domain; further: nearly all actives have a fitted effect of over 50% in size
Settings: AlphaScreen JMJD2A-Tudor / H3K4me3 peptide binding; activity change, negative = inhibition: at 114 µM (top of the series)
On the % scale 0 is the no-effect control and ±100 the full control effect; potency means the concentration at half of the fitted maximal effect; tags describe the fitted curve by direction and shape.

Sequence of UniProt O75164 (O75164 whole entry, looked up, the tested form may be a part): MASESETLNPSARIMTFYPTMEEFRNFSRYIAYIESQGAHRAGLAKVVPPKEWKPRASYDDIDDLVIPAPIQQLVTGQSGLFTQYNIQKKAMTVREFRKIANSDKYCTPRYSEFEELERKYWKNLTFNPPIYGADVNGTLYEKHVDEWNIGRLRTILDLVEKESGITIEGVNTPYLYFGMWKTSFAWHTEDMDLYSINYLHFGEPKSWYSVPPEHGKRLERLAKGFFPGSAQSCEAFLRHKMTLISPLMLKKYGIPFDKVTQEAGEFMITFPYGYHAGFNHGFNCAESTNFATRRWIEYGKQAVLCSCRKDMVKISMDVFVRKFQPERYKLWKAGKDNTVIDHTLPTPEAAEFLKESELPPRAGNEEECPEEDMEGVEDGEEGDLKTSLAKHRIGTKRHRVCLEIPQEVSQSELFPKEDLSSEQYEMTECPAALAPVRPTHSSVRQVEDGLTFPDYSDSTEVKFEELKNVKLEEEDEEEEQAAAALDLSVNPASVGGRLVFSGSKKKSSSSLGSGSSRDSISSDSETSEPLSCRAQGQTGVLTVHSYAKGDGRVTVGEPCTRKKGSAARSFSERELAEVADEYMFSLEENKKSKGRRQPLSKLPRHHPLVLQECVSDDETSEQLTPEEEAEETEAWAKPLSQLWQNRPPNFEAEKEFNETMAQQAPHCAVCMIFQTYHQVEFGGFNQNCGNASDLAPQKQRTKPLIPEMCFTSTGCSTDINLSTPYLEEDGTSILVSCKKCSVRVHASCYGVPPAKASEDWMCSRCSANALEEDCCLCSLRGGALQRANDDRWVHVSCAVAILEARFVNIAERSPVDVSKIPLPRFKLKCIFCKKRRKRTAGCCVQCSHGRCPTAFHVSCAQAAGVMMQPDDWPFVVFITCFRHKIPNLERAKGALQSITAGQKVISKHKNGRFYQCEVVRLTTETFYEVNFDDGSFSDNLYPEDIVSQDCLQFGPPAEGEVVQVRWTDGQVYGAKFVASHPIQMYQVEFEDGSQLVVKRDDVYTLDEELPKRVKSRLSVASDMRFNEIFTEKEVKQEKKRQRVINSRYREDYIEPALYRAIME

SMILES	Potency	activity change, negative = inhibition
O=C(COC(=O)c1cncc(Br)c1)Nc1ccc(N2CCCCC2)cc1	inconclusive: 44.7 µM [inhibitor, partial curve]	–
Cc1ccc(Nc2c(-c3ccccc3O)nc3cc(C)ccn23)cc1	inconclusive: 50.1 µM [inhibitor, partial curve]	–
Cc1ccc2oc(Nc3nc(C)cc(C)n3)nc2c1	inconclusive: 89.1 µM [inhibitor, single point]	–
CC(C)(C)c1ccc(OCC(=O)NC(Cc2c[nH]c3ccccc23)C(=O)O)cc1 (stereo not drawn)	–	inactive: -29.8%
O=C(CSCC(=O)N1CCCCC1)OCC(=O)c1c[nH]c2ccccc12	inconclusive: 100 µM [inhibitor, partial curve]	–
S=C(N/N=C1\CCc2ccccc21)NC1CCCCC1	inconclusive: 56.2 µM [inhibitor, partial curve]	–
CC(NCCCOc1cccc2ccccc12)c1ccccc1 (stereo not drawn)	active: 22.4 µM	–
CCCCc1cn([C@@H](CCCCNC(=O)OC(C)(C)C)C(=O)N2CCN(C(=O)OC(C)(C)C)CC2)nn1	inconclusive: 89.1 µM [inhibitor, partial curve]	–
O=S(=O)(Nc1ccc(N2CCCCC2)cc1)c1ccccc1	inconclusive: 50.1 µM [inhibitor, partial curve]	–
O=C(CCN1C(=O)c2ccccc2C1=O)Nc1ccc(S(=O)(=O)N2CCOCC2)cc1	inconclusive: 14.1 µM [inhibitor, partial curve, poor fit]	–
CCOC(=O)N1CCc2c(sc(NCc3sccc3C)c2C(=O)Nc2cc(Cl)ccc2OC)C1	inconclusive: 15.8 µM [inhibitor, partial curve, poor fit]	–
COc1ccc(OCCOc2ccc(/C=C3\C(=N)N4N=C(C)SC4=NC3=O)cc2)cc1	inconclusive: 56.2 µM [inhibitor, partial curve]	–
CC(C)(C)c1ccc(C(=O)/C(C#N)=C/c2cccs2)cc1	inconclusive: 56.2 µM [inhibitor, partial curve]	–
COc1cc(N2CCCC2)c(OC)cc1/C=C(/C#N)c1cccc(Br)c1	active: 17.8 µM	–
CCN(C(=O)COC(=O)CCc1ccccc1OC)c1c(N)n(Cc2ccccc2)c(=O)[nH]c1=O	–	inactive: -16.6%
CCCCOc1ccc(C2(C)NC(=O)NC2=O)cc1 (stereo not drawn)	active: 15.8 µM	–
COc1ccccc1C1C(C(=O)c2cc3ccccc3o2)=C(O)C(=O)N1CCN1CCOCC1 (stereo not drawn)	active: 89.1 µM	–
N#Cc1ccc(NC(=O)CSc2nc3[nH]c(=O)cc(O)c3s2)cc1	inconclusive: 70.8 µM [inhibitor, partial curve, poor fit]	–
O=C1CN(C(=O)COc2ccc(Cl)cc2)C(c2ccc(F)cc2)c2cc(Br)ccc2N1 (stereo not drawn)	–	inactive: -27.6%
COc1ccccc1NS(=O)(=O)c1cccc(NC(=O)c2[nH]c(C)c(C(C)=O)c2C)c1	inconclusive: 89.1 µM [inhibitor, partial curve]	–
COC(=O)c1ccc(NC(=S)N2CCN(Cc3cccc(C)c3)CC2)cc1	inconclusive: 56.2 µM [inhibitor, partial curve]	–
CCOC(=O)c1ccc(Nc2sc(C(=O)c3cccc([N+](=O)[O-])c3)c(N)c2C#N)cc1	–	inactive: -5.63%

SMILES	Potency	activity change, negative = inhibition
CC(Nc1ccc(-c2nc(-c3ccco3)no2)cc1[N+](=O)[O-])c1ccccc1 (stereo not drawn)	inconclusive: 70.8 µM [inhibitor, partial curve]	–
CCS(=O)(=O)c1oc(-c2ccc(F)cc2)nc1S(=O)(=O)c1ccc(Br)cc1	–	inactive: -1.39%
Cc1sc(N/N=C/c2cc([N+](=O)[O-])ccc2O)nc1-c1ccccc1	active: 22.4 µM	–
CCC1=C(OC(=O)N(CC)CC)N2C(=O)OC(=NCCc3c[nH]c4ccccc34)[C@]2(Cc2ccccc2)[C@H]2C1=CC[C@H]1C(=O)N(c3ccccc3)C(=O)[C@H]12	inconclusive: 63.1 µM [inhibitor, partial curve, poor fit]	–
Cc1nc(N)sc1-c1csc(Nc2cccc(C(=O)O)c2)n1	inconclusive: 56.2 µM [inhibitor, partial curve]	–
CCOC(=O)CC1=NN(c2ccccc2)C(=O)/C1=C\c1ccc(OC)cc1OC	active: 14.1 µM	–
Nc1ccc(N=Nc2ccc(O)cc2)c(N)n1	inconclusive: 25.1 µM [inhibitor, full curve]	–
COc1ccc(-c2nc3sc(CCNC(=O)C(=O)Nc4ccc(C)c(F)c4)c(C)n3n2)cc1	–	inactive: -19.5%
COc1cc(-c2noc(C)c2C#Cc2ccc(N)cc2)cc(OC)c1OC	inconclusive: 56.2 µM [inhibitor, partial curve]	–
CCOCCCn1c(=NC(=O)c2cccnc2)c(C(=O)OCC)cc2c(=O)n3ccccc3nc21	active: 50.1 µM	–
CCc1ccc(S(=O)(=O)c2cn(C)c3cc(F)c(F)cc3c2=O)cc1	–	inactive: -6.29%
COCCCn1c(=O)c2ccccc2n(Cc2cc(C(=O)OC)ccc2OC)c1=O	inconclusive: 89.1 µM [inhibitor, partial curve]	–
COc1cc(CNc2ccc(O)cc2)cc(Br)c1OCc1ccccc1F	inconclusive: 44.7 µM [inhibitor, partial curve]	–
O=C(CNC(=O)c1ccccc1F)OCc1cc(=O)n2nc(C3CC3)sc2n1	–	inactive: -21.7%
CCCCC1(c2ccc(F)cc2)NC(=O)N(CC(=O)N2CCN(C(=O)c3ccco3)CC2)C1=O (stereo not drawn)	–	inactive: -14.5%
CN(CC(=O)Nc1cccc(F)c1)C(=O)c1ccc(N2CCCC2)c([N+](=O)[O-])c1	inconclusive: 44.7 µM [inhibitor, partial curve]	–
COc1cc(NS(=O)(=O)c2ccc(F)cc2)c(OC)cc1NC(C)=O	–	inactive: 2.51%
Cc1c(Cl)cccc1NC(=O)CC(Cc1ccccc1)C(=O)O (stereo not drawn)	–	inactive: -20.3%
CCOC(=O)N1CCN(C(=O)c2ccc(NS(=O)(=O)c3ccc4[nH]c(=O)[nH]c4c3)cc2)CC1	–	inactive: -8.97%
COc1ccccc1-c1cc(C(=O)NCCc2ccccc2)no1	inactive and inconclusive: 28.2 µM [inhibitor, single point]	–
COc1ccc(C(=O)NCCCn2ccnc2)cc1	inconclusive: 89.1 µM [inhibitor, single point]	–
